Laboratory results: PubChem BioAssay AID463173 (ICCB-Longwood Screening Facility, Harvard Medical School, 2010)
About 1,700 (3.3%) of roughly 52,000 compounds were called active. Cut-off read from the data, not from the text of the source: active = survival mostly below about 52% (no sharp cut-off); inactive = mostly above about 56%. The list shows a part of the results.

Each compound was assayed on Wild type (assay: growth inhibition of S. aureus wild type versus tarO mutant, primary screen, teichoic acid synthesis inhibitors, RN4220, OD600 (AID 463173)). Conditions: S. aureus RN4220 wild type/DeltatarO growth, OD600, 18 h, active compounds read low, screened at 18.75 µg/mL (by protocol).

Row | Structure (SMILES) | survival
1 | O=C(CSc1n[nH]c(-c2ccccc2Cl)n1)N1CCN(c2ccccc2F)CC1 | inactive: 123%
2 | COc1ccc(-c2coc3c2c(C)cc2oc(=O)cc(C)c23)cc1 | inactive: 83%
3 | Cc1oc(-c2ccc(C(=O)NCc3ccccc3)cc2)nc1CS(=O)(=O)c1ccccc1 | inactive: 75%
4 | O=C(NC1CCCC1)c1ccc2c(c1)N(Cc1ccccc1F)C(=O)c1ccccc1S2 | inactive: 68%
5 | O=C(Cc1ccccc1)Nc1cccc(-c2nc3cccnc3s2)c1 | inactive: 93%
6 | CC1=C(C(=O)Nc2cccnc2)C(c2ccccc2)n2nc(SCc3ccccc3F)nc2N1 (centres undefined) | inactive: 146%
7 | Nc1ccc(-c2ccc(N)cc2C(F)(F)F)c(C(F)(F)F)c1 | inactive: 117%
8 | COc1ccc(CCN2C(=O)N(c3ccc(F)cc3)C(=O)C2CC(=O)Nc2ccc(F)c(F)c2)cc1 (centres undefined) | inactive: 50%
9 | CCOc1ccc(N(CC(=O)NCc2ccc(Cl)cc2)S(=O)(=O)c2c(C)noc2C)cc1 | inactive: 86%
10 | Cc1c(NC(=O)c2ccc(N3CCC(C)CC3)c([N+](=O)[O-])c2)cccc1-c1nc2ccccc2o1 | inactive: 72%
11 | Cc1ccc(C(=O)Nc2ccc(OCc3cc(=O)n4c5c(sc4n3)CCCC5)cc2)cc1 | inactive: 88%
12 | Cc1cccc(N2CCN(C(=O)c3oc(=O)c4ccccc4c3-c3ccccc3)CC2)c1C | inactive: 76%
13 | COCCCNC(=O)C1CCC(Cn2c(=O)c3sccc3n(Cc3ccc(F)cc3)c2=O)CC1 (centres undefined) | inactive: 73%
14 | Cc1cc(NC(=O)Nc2csc3c2CCCC3)ccc1Br | inactive: 46%
15 | COC(=O)c1c(C)sc(-c2c(-c3cccc(Cl)c3)[nH]c3c2c(=O)[nH]c(=O)n3C)c1O | inactive: 85%
16 | O=C(O)CN1C(=O)CCC1=O | inactive: 100%
17 | Cc1cc(C)cc(NC(=O)c2sc3nc(-c4cc5ccccc5oc4=O)[nH]c(=O)c3c2C)c1 | inactive: 81%
18 | Cc1ccc(OCc2ccc(-c3nc(C#N)c(N4CCC(C)CC4)o3)o2)cc1 | inactive: 83%
19 | COc1ccc(-c2noc(N3CCN(c4cccc(C)c4C)CC3)n2)cc1OC | inactive: 69%
20 | CCc1cccc(C)c1NC(=O)C(C)Sc1nc2c(c(=O)[nH]1)CCCC2 (centres undefined) | inactive: 106%
21 | COc1ccccc1C(=O)Nc1nnc(SCc2cc(=O)n3ccc(C)cc3n2)s1 | inactive: 57%
22 | COc1ccc(CCNC(=O)CCc2c(C)nc3c(c(C)nn3-c3ccccc3)c2C)c(OC)c1 | inactive: 78%
23 | CCCNC(=O)CCC(=O)N1Cc2ccccc2Oc2ncccc21 | inactive: 129%
24 | c1ccc(-c2nc(N3CCCCC3)c3ccccc3n2)cc1 | inactive: 130%
